Results from the supplement of paper PMC6828730.
This is one part of the list. Most values come without repeats; read them as rough.

Columns and labels:
[1] = tested on: hiPSC-derived cardiomyocytes; experiment: time to death of most cells in well after compound addition (days); higher = less cardiotoxic; settings: screen: 1; 10 µM
[2] = tested on: hiPSC-derived cardiomyocytes; experiment: time to death of most cells in well after compound addition (days); higher = less cardiotoxic; extreme values may be limits of the assay; settings: 10 µM

Row | Compound | time to death of most cells in well [1] | time to death of most cells in well ([2]; screen: 2) | time to death of most cells in well ([2]; screen: 3) | time to death of most cells in well ([2]; screen: 4)
1 | Cc1[nH]c(/C=C2\C(=O)Nc3ccc(S(=O)(=O)N(C)c4cccc(Cl)c4)cc32)c(C)c1C(=O)N1CCN(C)CC1 | > 7 | 4.5 | 4 | > 7
2 | Cc1ccccc1CN1C2=NCCN2C(=O)C2=C1CCN(Cc1ccccc1)C2 [TIC10 Analogue] | > 7 | > 7 | > 7 | > 7
3 | Cc1cc(C(C)Nc2ccccc2)c2nc(N3CCOCC3)cc(=O)n2c1 (stereo not given) | > 7 | > 7 | > 7 | > 7
4 | N#CC(=C(/N)Sc1ccccc1N)/C(C#N)=C(\N)Sc1ccccc1N | > 7 | 6 | > 7 | > 7
5 | O=C1NC(=O)/C(=C/c2ccc3c(c2)OC(F)(F)O3)S1 | > 7 | > 7 | > 7 | > 7
6 | S=C(NCc1ccc2c(c1)OCO2)N1CCN(c2ncnc3c2oc2ccccc23)CC1 [Amuvatinib (MP-470)] | 3 | 2 | 0 | > 7
7 | COc1cc(Nc2ncc(F)c(Nc3ccc4c(n3)N(COP(=O)(O)O)C(=O)C(C)(C)O4)n2)cc(OC)c1OC [Fostamatinib (R788)] | 1 | > 7 | > 7 | > 7
8 | CCCS(=O)(=O)Nc1ccc(F)c(C(=O)c2c[nH]c3ncc(Cl)cc23)c1F | 3 | > 7 | > 7 | > 7
9 | C=CC(=O)Nc1cccc(Nc2nc(Nc3ccc(NC4CN(CCF)C4)cc3OC)ncc2C(F)(F)F)c1 | 3 | 2 | 5.5 | > 7
10 | O=C(NOCC1CC1)c1ccc(F)c(F)c1Nc1ccc(I)cc1Cl | > 7 | > 7 | > 7 | > 7
11 | O=C(O)[C@]1(Cc2cccc(Nc3nccs3)n2)CC[C@@H](Oc2cccc(Cl)c2F)CC1 | > 7 | > 7 | > 7 | > 7
12 | Nc1cc(C(F)(F)F)c(-c2cc(N3CCOCC3)nc(N3CCOCC3)n2)cn1 [Buparlisib (BKM120, NVP-BKM120)] | 4 | 2.5 | > 7 | > 7
13 | CCC(=O)Nc1cccc(Oc2nc(Nc3ccc(N4CCN(C)CC4)cc3OC)ncc2Cl)c1 | 5.5 | 2 | 6.5 | 3.5
14 | C=CC(=O)Nc1cccc(Oc2nc(Nc3ccc(N4CCN(C)CC4)cc3)nc3ccsc23)c1 | > 7 | 3.5 | > 7 | > 7
15 | O=c1cc(N2CCOCC2)oc2c(-c3ccccc3)cccc12 | 3.5 | > 7 | > 7 | 4
16 | CC1COCCN1c1cc(C2(S(C)(=O)=O)CC2)nc(-c2cccc3[nH]ccc23)n1 (stereo not given) | > 7 | > 7 | > 7 | > 7
17 | CCOc1ccn(-c2ccc(F)cc2)c(=O)c1C(=O)Nc1ccc(Oc2ccnc(N)c2Cl)c(F)c1 | 5.5 | 6.5 | > 7 | > 7
18 | C[C@@H]1CN(CC(=O)Nc2ccc3c(c2)Cc2cccc(-c4cc(=O)cc(N5CCOCC5)o4)c2S3)C[C@H](C)O1 | > 7 | > 7 | > 7 | > 7
19 | Nc1nc(N)c2nc(-c3cccc(O)c3)c(-c3cccc(O)c3)nc2n1 | 2.5 | 2 | 3.5 | > 7
20 | Cc1cnc(Nc2ccc(N3CCN(C)CC3)cc2)nc1Nc1cccc(S(=O)(=O)NC(C)(C)C)c1 | 1.5 | 3.5 | 6 | 3
21 | CC(C)(O)CNc1ncc(-c2ccnc(Nc3ccnc(Cl)c3)n2)c(CC2CC2)n1 | 2.5 | 2 | 2.5 | 6.5
22 | COc1cc2ncnc(Nc3ccc(F)c(Cl)c3)c2cc1NC(=O)/C=C/CN1CCCCC1 | 3 | 3 | 3.5 | > 7
23 | C[C@@H]1COC(Nc2ccc3ncnc(Nc4ccc(OCc5nccs5)c(Cl)c4)c3c2)=N1 [Varlitinib] | 6 | 4.5 | > 7 | > 7
24 | CC(=O)Nc1nc(C)c(-c2ccc(Cl)c(S(=O)(=O)NCCO)c2)s1 | > 7 | > 7 | > 7 | > 7
25 | O=C1NC(=O)C(c2cnc3ccccn23)=C1c1cn2c3c(cc(F)cc13)CN(C(=O)N1CCCCC1)CC2 | 0 | 5.5 | > 7 | 5.5
26 | CC(C)(CCCCCC(O)CCCCCC(C)(C)C(=O)O)C(=O)O | > 7 | > 7 | > 7 | > 7
27 | COc1ccc2c(c1)c(C1=C(c3c[nH]c4ccccc34)C(=O)NC1=O)cn2CCCN(C)C | > 7 | 6.5 | > 7 | > 7
28 | CC(C)c1cnn2c(NCc3ccccc3)cc(NCCCCCCN)nc12 | > 7 | 6.5 | > 7 | > 7
29 | CN(C[C@@H]1COCCO1)S(=O)(=O)Nc1ccc2ccc3ncc(-c4cnn(C)c4)cc3c(=O)c2c1 | 3.5 | 6 | > 7 | > 7
30 | COc1ccc(C(=O)Nc2sc3c(c2C(N)=O)CCCC3)cc1OC | > 7 | > 7 | > 7 | > 7
